According to patent US11000038B2, “Pyridone compounds and agricultural and horticultural fungicides containing the same as active ingredients” (priority 2017, dated 2021):

Experiments:
[1] = test system: cabbage Alternaria sooty spot fungi (Alternaia brassicicola); assay: Test Example C: cabbage Alternaria sooty spot, spray treatment of cabbage plants; type: in vivo; details: spray treatment of cabbage plants; control value=100{1-(n/3)}
Text: [Test Example C] Cabbage Alternaria Sooty Spot
Test plants (cabbage variety: Shikidori) were cultivated until the cotyledons extended after the sowing of seeds.
<Control Value> Control value=100{1−(n/3)}

[2] = test system: wheat brown rust fungi (Puccinia recondita); assay: Test Example E: wheat brown rust, spray treatment of wheat plants; type: in vivo; details: spray treatment of wheat plants; control value=100{1-(n/3)}
[3] = test system: gray mold fungi (Botrytis cinerea); assay: Test Example B: tomato gray mold, spray treatment of tomato plants; details: spray treatment of tomato plants; control value=100{1-(n/3)}
[4] = test system: grape downy mildew fungus (Plasmopara viticola); assay: Test Example G: grape downy mildew, spray treatment of grape plants; details: 250 ppm spray, 2.5 ml/pot, grape Neomuscat; 7 to 10 days from inoculation
[5] = test system: barley powdery mildew fungi (Blumeria graminis f. sp. hordei); assay: Test Example D: barley powdery mildew, spray treatment of barley plants; details: spray treatment of barley plants; control value=100{1-(n/3)}

SMILES | Test C control value class (cabbage Alternaria sooty spot) [1] | Test E control value class (wheat brown rust) [2] | Test B control value class (tomato gray mold) [3] | Test G control value class (grape downy mildew) [4] | Test D control value class (barley powdery mildew) [5]
Cc1ccccc1-n1cc(Cl)c(=O)c(Br)c1-c1c(F)cccc1F [Compound 113] | H (H shows the control value of more than 50%) | H (H shows the control value of more than 50%) | H (H shows the control value of more than 50%) | L (L shows the control value of 50% or less) | L (L shows the control value of 50% or less)
Cc1ccccc1-n1cc(Cl)c(=O)c(Cl)c1-c1c(F)cccc1F [Compound 114] | H (H shows the control value of more than 50%) | H (H shows the control value of more than 50%) | H (H shows the control value of more than 50%) | L (L shows the control value of 50% or less) | L (L shows the control value of 50% or less)
CC(C)Cn1cc(Br)c(=O)c(Cl)c1-c1c(F)cc(F)cc1F [Compound 115] | H (H shows the control value of more than 50%) | H (H shows the control value of more than 50%) | H (H shows the control value of more than 50%) | H (H shows the control value of more than 50%) | H (H shows the control value of more than 50%)
O=c1c(Br)cn(-c2cccc(Br)c2)c(-c2c(F)cc(F)cc2F)c1Br [Compound 118] | H (H shows the control value of more than 50%) | L (L shows the control value of 50% or less) | L (L shows the control value of 50% or less) | L (L shows the control value of 50% or less) | L (L shows the control value of 50% or less)
O=c1c(Cl)cn(-c2cccc(Br)c2)c(-c2c(F)cc(F)cc2F)c1Br [Compound 119] | H (H shows the control value of more than 50%) | L (L shows the control value of 50% or less) | L (L shows the control value of 50% or less) | L (L shows the control value of 50% or less) | L (L shows the control value of 50% or less)
O=c1c(Cl)cn(-c2cccc(Br)c2)c(-c2c(F)cc(F)cc2F)c1Cl [Compound 120] | H (H shows the control value of more than 50%) | H (H shows the control value of more than 50%) | H (H shows the control value of more than 50%) | L (L shows the control value of 50% or less) | L (L shows the control value of 50% or less)
O=c1c(Cl)cn(CC2CCCCC2)c(-c2c(F)cc(F)cc2F)c1F [Compound 121] | H (H shows the control value of more than 50%) | H (H shows the control value of more than 50%) | L (L shows the control value of 50% or less) | L (L shows the control value of 50% or less) | L (L shows the control value of 50% or less)
O=c1c(Cl)cn(CC2CCCCC2)c(-c2c(F)cc(F)cc2F)c1Br [Compound 123] | H (H shows the control value of more than 50%) | H (H shows the control value of more than 50%) | H (H shows the control value of more than 50%) | H (H shows the control value of more than 50%) | L (L shows the control value of 50% or less)
O=c1c(Br)cn(CC2CCCCC2)c(-c2c(F)cc(F)cc2F)c1Cl [Compound 124] | H (H shows the control value of more than 50%) | L (L shows the control value of 50% or less) | L (L shows the control value of 50% or less) | L (L shows the control value of 50% or less) | L (L shows the control value of 50% or less)
O=c1c(Br)cn(-c2ccon2)c(-c2c(F)cc(F)cc2F)c1Cl [Compound 126] | H (H shows the control value of more than 50%) | H (H shows the control value of more than 50%) | H (H shows the control value of more than 50%) | L (L shows the control value of 50% or less) | L (L shows the control value of 50% or less)
O=c1c(Br)cn(-c2ccon2)c(-c2c(F)cc(F)cc2F)c1Br [Compound 127] | H (H shows the control value of more than 50%) | H (H shows the control value of more than 50%) | H (H shows the control value of more than 50%) | L (L shows the control value of 50% or less) | L (L shows the control value of 50% or less)
O=c1c(Cl)cn(-c2ccon2)c(-c2c(F)cc(F)cc2F)c1Br [Compound 129] | H (H shows the control value of more than 50%) | H (H shows the control value of more than 50%) | H (H shows the control value of more than 50%) | L (L shows the control value of 50% or less) | L (L shows the control value of 50% or less)
COc1cc(F)c(-c2c(Br)c(=O)c(Br)cn2-c2ccon2)c(F)c1 [Compound 130] | H (H shows the control value of more than 50%) | H (H shows the control value of more than 50%) | H (H shows the control value of more than 50%) | L (L shows the control value of 50% or less) | L (L shows the control value of 50% or less)
COc1cc(F)c(-c2c(Cl)c(=O)c(Br)cn2-c2ccon2)c(F)c1 [Compound 131] | H (H shows the control value of more than 50%) | H (H shows the control value of more than 50%) | H (H shows the control value of more than 50%) | L (L shows the control value of 50% or less) | L (L shows the control value of 50% or less)
COc1cc(F)c(-c2c(Br)c(=O)c(Br)cn2CC(C)C)c(F)c1 [Compound 133] | H (H shows the control value of more than 50%) | H (H shows the control value of more than 50%) | H (H shows the control value of more than 50%) | L (L shows the control value of 50% or less) | L (L shows the control value of 50% or less)
Cc1cn(C(C)C(C)C)c(-c2c(F)cc(F)cc2F)c(Cl)c1=O (centres unmarked) [Compound 135] | H (H shows the control value of more than 50%) | H (H shows the control value of more than 50%) | H (H shows the control value of more than 50%) | L (L shows the control value of 50% or less) | H (H shows the control value of more than 50%)
CC(=O)c1cn(C(C)C(C)C)c(-c2c(F)cc(F)cc2F)c(Cl)c1=O (centres unmarked) [Compound 136] | H (H shows the control value of more than 50%) | H (H shows the control value of more than 50%) | H (H shows the control value of more than 50%) | H (H shows the control value of more than 50%) | L (L shows the control value of 50% or less)
CC(C)C(C)n1cc(C(F)(F)F)c(=O)c(Cl)c1-c1c(F)cc(F)cc1F (centres unmarked) [Compound 137] | L (L shows the control value of 50% or less) | L (L shows the control value of 50% or less) | H (H shows the control value of more than 50%) | L (L shows the control value of 50% or less) | H (H shows the control value of more than 50%)
Cc1cc(-n2cc(Cl)c(=O)c(Cl)c2-c2c(F)cc(F)cc2F)no1 [Compound 138] | H (H shows the control value of more than 50%) | H (H shows the control value of more than 50%) | H (H shows the control value of more than 50%) | L (L shows the control value of 50% or less) | L (L shows the control value of 50% or less)
